# The supplement of paper PMC8728848
# Some of the results follow.
# B1: CBM32-1 (Clostridium perfringens) (protein)
# chain: MGSSHHHHHHSSGLVPRGSHMASGVEITEGVTVTAKGNTEGNTADLAIDGDLSTYWESSNDYKWIEVDLGGIYELSKIEIFNKDEAVYKYNIYASEDGENFNKIAYKNNDNVSDSNGNVHTIDNVRAGKIRIDVVQNSNSDRVNIAEINVFG
# How the values were obtained:
# Experiment in all cases: glycan array binding signal (z-score within array); higher = stronger binding
# Conditions in all cases: glycan notation: IUPAC condensed, linker removed
# [1] = molecular target: Gal(b1-4)GlcNAc(b1-3)Gal(b1-4)GlcNAc(b1-3)Gal(b1-4)GlcNAc
# Outline: (§1)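 Columns mapping to the same glycan were averaged after glycan names were converted to IUPAC-condensed notation. The data come from 3228 arrays in the Consortium for Functional Glycomics database, limited to those with an available protein sequence. Binding is reported as a within-array Z-score averaged across arrays of one protein sequence and across linkers.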
# [2] = molecular target: Gal(b1-4)GlcNAc(b1-3)Gal(b1-4)[Fuc(a1-3)]GlcNAc(b1-3)Gal(b1-4)[Fuc(a1-3)]GlcNAc
# Outline: as §1
# [3] = molecular target: Gal(b1-4)GlcNAc(b1-3)GalNAc
# Outline: as §1
# [4] = molecular target: Gal(b1-4)GlcNAc(b1-3)[Gal(b1-4)GlcNAc(b1-6)]Gal(b1-4)GlcNAc
# Outline: as §1
# [5] = molecular target: Gal(b1-4)GlcNAc(b1-3)[GlcNAc(b1-6)]Gal(b1-4)GlcNAc
# Outline: as §1
# [6] = molecular target: Gal(b1-4)GlcNAc(b1-6)Gal(b1-4)GlcNAc
# Outline: as §1
# [7] = molecular target: Gal(b1-4)GlcNAc(b1-6)Gal(b1-4)GlcNAc(b1-6)GalNAc
# Outline: as §1
# [8] = molecular target: Gal(b1-4)GlcNAc(b1-6)GalNAc
# Outline: as §1
# [9] = molecular target: Gal(b1-4)GlcNAc(b1-6)[Gal(b1-3)]GalNAc
# Outline: as §1
# Gal3S(b1-3)GalNAc = molecular target: Gal3S(b1-3)GalNAc
# Outline: as §1
# Gal3S(b1-3)GlcNAc = molecular target: Gal3S(b1-3)GlcNAc
# Outline: as §1
# [10] = molecular target: Gal3S(b1-3)[Fuc(a1-4)]GlcNAc
# Outline: as §1
# Gal3S(b1-4)Glc = molecular target: Gal3S(b1-4)Glc
# Outline: as §1
# Gal3S(b1-4)Glc6S = molecular target: Gal3S(b1-4)Glc6S
# Outline: as §1
# Gal3S(b1-4)GlcNAc = molecular target: Gal3S(b1-4)GlcNAc
# Outline: as §1
# Gal3S(b1-4)GlcNAc6S = molecular target: Gal3S(b1-4)GlcNAc6S
# Outline: as §1
# [11] = molecular target: Gal3S(b1-4)[Fuc(a1-3)]Glc
# Outline: as §1
# Gal3S4S(b1-4)GlcNAc = molecular target: Gal3S4S(b1-4)GlcNAc
# Outline: as §1
# Gal3S6S(b1-4)GlcNAc = molecular target: Gal3S6S(b1-4)GlcNAc
# Outline: as §1
# Gal3S6S(b1-4)GlcNAc6S = molecular target: Gal3S6S(b1-4)GlcNAc6S
# Outline: as §1
# Gal4S(b1-4)GlcNAc = molecular target: Gal4S(b1-4)GlcNAc
# Outline: as §1
# Gal4S6S(b1-4)GlcNAc = molecular target: Gal4S6S(b1-4)GlcNAc
# Outline: as §1
# Gal6S(b1-4)Glc = molecular target: Gal6S(b1-4)Glc
# Outline: as §1
# Gal6S(b1-4)Glc6S = molecular target: Gal6S(b1-4)Glc6S
# Outline: as §1
# Gal6S(b1-4)GlcNAc = molecular target: Gal6S(b1-4)GlcNAc
# Outline: as §1
# Gal6S(b1-4)GlcNAc6S = molecular target: Gal6S(b1-4)GlcNAc6S
# Outline: as §1
# GalNAc(a1-3)Gal = molecular target: GalNAc(a1-3)Gal
# Outline: as §1
# GalNAc(a1-3)GalNAc = molecular target: GalNAc(a1-3)GalNAc
# Outline: as §1
# GalNAc(b1-3)Gal = molecular target: GalNAc(b1-3)Gal
# Outline: as §1
# [12] = molecular target: GalNAc(b1-3)Gal(a1-4)Gal(b1-4)GlcNAc
# Outline: as §1
# GalNAc(b1-3)GalNAc = molecular target: GalNAc(b1-3)GalNAc
# Outline: as §1
# GalNAc(b1-4)GlcNAc = molecular target: GalNAc(b1-4)GlcNAc
# Outline: as §1
# Glc(a1-4)Glc = molecular target: Glc(a1-4)Glc
# Outline: as §1
# Glc(a1-6)Glc(a1-6)Glc = molecular target: Glc(a1-6)Glc(a1-6)Glc
# Outline: as §1
# Glc(b1-4)Glc = molecular target: Glc(b1-4)Glc
# Outline: as §1
# Glc(b1-6)Glc = molecular target: Glc(b1-6)Glc
# Outline: as §1
# GlcA(b1-3)Gal = molecular target: GlcA(b1-3)Gal
# Outline: as §1
# GlcA(b1-3)GlcNAc = molecular target: GlcA(b1-3)GlcNAc
# Outline: as §1
# GlcA(b1-6)Gal = molecular target: GlcA(b1-6)Gal
# Outline: as §1
# [13] = molecular target: GlcNAc(a1-3)Gal(b1-4)GlcNAc
# Outline: as §1
# [14] = molecular target: GlcNAc(a1-6)Gal(b1-4)GlcNAc
# Outline: as §1
# [15] = molecular target: GlcNAc(b1-2)Gal(b1-3)GalNAc
# Outline: as §1
# [16] = molecular target: GlcNAc(b1-2)Man(a1-3)[GlcNAc(b1-2)Man(a1-6)]Man(b1-4)GlcNAc(b1-4)GlcNAc
# Outline: as §1
# GlcNAc(b1-3)Gal = molecular target: GlcNAc(b1-3)Gal
# Outline: as §1
# [17] = molecular target: GlcNAc(b1-3)Gal(b1-3)GalNAc
# Outline: as §1
binder,measurement,setting,value
B1,glycan array binding signal (z-score),[1],0.889
same,glycan array binding signal (z-score),[2],-0.448
same,glycan array binding signal (z-score),[3],0.629
same,glycan array binding signal (z-score),[4],-0.343
same,glycan array binding signal (z-score),[5],-0.268
same,glycan array binding signal (z-score),[6],-0.302
same,glycan array binding signal (z-score),[7],-0.419
same,glycan array binding signal (z-score),[8],-0.567
same,glycan array binding signal (z-score),[9],-0.263
same,glycan array binding signal (z-score),Gal3S(b1-3)GalNAc,-0.59
same,glycan array binding signal (z-score),Gal3S(b1-3)GlcNAc,0.183
same,glycan array binding signal (z-score),[10],-0.231
same,glycan array binding signal (z-score),Gal3S(b1-4)Glc,-0.075
same,glycan array binding signal (z-score),Gal3S(b1-4)Glc6S,3.21
same,glycan array binding signal (z-score),Gal3S(b1-4)GlcNAc,-0.08
same,glycan array binding signal (z-score),Gal3S(b1-4)GlcNAc6S,1.09
same,glycan array binding signal (z-score),[11],-0.631
same,glycan array binding signal (z-score),Gal3S4S(b1-4)GlcNAc,0.674
same,glycan array binding signal (z-score),Gal3S6S(b1-4)GlcNAc,0.801
same,glycan array binding signal (z-score),Gal3S6S(b1-4)GlcNAc6S,5.08
same,glycan array binding signal (z-score),Gal4S(b1-4)GlcNAc,-0.004
same,glycan array binding signal (z-score),Gal4S6S(b1-4)GlcNAc,0.619
same,glycan array binding signal (z-score),Gal6S(b1-4)Glc,0.513
same,glycan array binding signal (z-score),Gal6S(b1-4)Glc6S,4.39
same,glycan array binding signal (z-score),Gal6S(b1-4)GlcNAc,0.342
same,glycan array binding signal (z-score),Gal6S(b1-4)GlcNAc6S,-0.845
same,glycan array binding signal (z-score),GalNAc(a1-3)Gal,0.085
same,glycan array binding signal (z-score),GalNAc(a1-3)GalNAc,-0.173
same,glycan array binding signal (z-score),GalNAc(b1-3)Gal,-0.03
same,glycan array binding signal (z-score),[12],-0.689
same,glycan array binding signal (z-score),GalNAc(b1-3)GalNAc,-0.822
same,glycan array binding signal (z-score),GalNAc(b1-4)GlcNAc,0.264
same,glycan array binding signal (z-score),Glc(a1-4)Glc,-0.843
same,glycan array binding signal (z-score),Glc(a1-6)Glc(a1-6)Glc,-0.279
same,glycan array binding signal (z-score),Glc(b1-4)Glc,1.96
same,glycan array binding signal (z-score),Glc(b1-6)Glc,-0.325
same,glycan array binding signal (z-score),GlcA(b1-3)Gal,-0.266
same,glycan array binding signal (z-score),GlcA(b1-3)GlcNAc,0.008
same,glycan array binding signal (z-score),GlcA(b1-6)Gal,0.678
same,glycan array binding signal (z-score),[13],1.11
same,glycan array binding signal (z-score),[14],-0.462
same,glycan array binding signal (z-score),[15],-0.168
same,glycan array binding signal (z-score),[16],-0.126
same,glycan array binding signal (z-score),GlcNAc(b1-3)Gal,-0.113
same,glycan array binding signal (z-score),[17],0.127
